Measured values as given in the supplement of paper PMC10126150.
Values marked as one replicate rest on one cluster of the flow cell; about a third of the high ones do not repeat.
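Also: ATP exposure 15 min at 22 °C before imaging.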

These sequences were tested on ATP (assay: switch fluorescence ratio, 500 uM ATP over buffer (Cy3 cluster intensity, sum of 5 cycles each) (fold (ratio)); higher = stronger signal-on switching upon ATP binding; sequences stand for … in TCGTCGGCAGCGTCAGATGTGTATAAGAGACAGTTTTTTTTTTTTTTTTTTTTTTTTT…TC). Conditions: aptamer strand: ATP DNA aptamer (quencher-CACCTGGGGGAGTATTGCGGAGGAAGG + anchor), 100 nM annealed; ATP concentration: 500 uM; one replicate.
In short: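 Per cluster, summed Cy3 intensity from the target cycles was divided by that from the buffer cycles to give the fluorescence ratio, then averaged per switch-domain sequence. Clusters outside 100-1000 RFU were excluded. The Cy3-labelled switching-strand clusters, on a modified Illumina MiSeq flow-cell, were annealed to 100 nM quencher-labelled ATP aptamer and imaged in selection buffer, then after 15 min with 500 uM ATP at 22 °C, for five cycles with NaOH stripping and re-annealing between them.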
Sequence AACGTCCCAG has a switch fluorescence ratio of 1.08.
In the case of AACGTCTCGC, the switch fluorescence ratio is reported as 0.985.
Sequence AACGTCTGG has a switch fluorescence ratio of 0.981.
For AACGTGGTTC, the switch fluorescence ratio was 1.04.
AACGTTGTCA gave a switch fluorescence ratio of 1.04.
Work on AACGTTTACC yielded a switch fluorescence ratio of 1.13.
AACTAGCGGC was tested, and the switch fluorescence ratio was 1.03.
Sequence AACTAGTCCA has a switch fluorescence ratio of 0.994.
Sequence AACTAGTCGG has a switch fluorescence ratio of 1.02.
In the case of AACTAGTGAG, the switch fluorescence ratio is reported as 1.04.
In the case of AACTAGTTT, the switch fluorescence ratio is reported as 0.969.
AACTCAACTT was tested, and the switch fluorescence ratio was 1.04.
With AACTCACCA the switch fluorescence ratio was 1.14.
Work on AACTCATTGG yielded a switch fluorescence ratio of 0.985.
For AACTCGAAAA, the switch fluorescence ratio was 1.12.
AACTCGACGC gave a switch fluorescence ratio of 1.5.
Work on AACTCTTGCC yielded a switch fluorescence ratio of 1.03.
AACTGATTGA showed a switch fluorescence ratio of 1.
AACTGCAACT was tested, and the switch fluorescence ratio was 1.16.
For AACTGCTGAC, the switch fluorescence ratio was 1.17.
Work on AACTGGATGC yielded a switch fluorescence ratio of 0.971.
For AACTGGCAGA, the switch fluorescence ratio was 0.979.
AACTGGCTCC was tested, and the switch fluorescence ratio was 1.18.
Sequence AACTGGTGAC has a switch fluorescence ratio of 1.07.
Work on AACTGTACA yielded a switch fluorescence ratio of 1.49.
With AACTGTCGCT the switch fluorescence ratio was 1.06.
AACTGTCTTT showed a switch fluorescence ratio of 0.999.
AACTTAGAAT was tested, and the switch fluorescence ratio was 0.947.
AACTTAGACA showed a switch fluorescence ratio of 1.02.
Sequence AACTTAGTTA has a switch fluorescence ratio of 1.
With AACTTAGTTT the switch fluorescence ratio was 1.07.
With AACTTCAGGG the switch fluorescence ratio was 1.01.
In the case of AACTTCATTA, the switch fluorescence ratio is reported as 0.996.
AACTTCGAGG showed a switch fluorescence ratio of 1.03.
AACTTGGCAC was tested, and the switch fluorescence ratio was 1.03.
AACTTGTCGC showed a switch fluorescence ratio of 1.06.
AACTTGTTGA gave a switch fluorescence ratio of 1.
In the case of AACTTTAATT, the switch fluorescence ratio is reported as 0.983.
AACTTTGCCA showed a switch fluorescence ratio of 1.01.
In the case of AACTTTTACC, the switch fluorescence ratio is reported as 1.08.
With AACTTTTAGA the switch fluorescence ratio was 1.
AAGAAATATA was tested, and the switch fluorescence ratio was 0.984.
For AAGAAGGGAC, the switch fluorescence ratio was 0.968.
AAGAATCTA showed a switch fluorescence ratio of 0.985.
Work on AAGACAGCGG yielded a switch fluorescence ratio of 1.04.
AAGACAGGCT gave a switch fluorescence ratio of 1.01.
AAGACCGCAA was tested, and the switch fluorescence ratio was 2.48.
For AAGACTAGAT, the switch fluorescence ratio was 1.03.
AAGACTGACC gave a switch fluorescence ratio of 1.13.
In the case of AAGACTGTTG, the switch fluorescence ratio is reported as 0.955.
With AAGAGAAATT the switch fluorescence ratio was 0.956.
For AAGAGACCG, the switch fluorescence ratio was 1.08.
Sequence AAGAGACGTT has a switch fluorescence ratio of 0.947.
AAGAGATTGT gave a switch fluorescence ratio of 0.976.
Work on AAGAGCGATG yielded a switch fluorescence ratio of 1.06.
AAGAGCTCGA was tested, and the switch fluorescence ratio was 0.965.
In the case of AAGAGGAGGA, the switch fluorescence ratio is reported as 1.02.
AAGAGGATAA showed a switch fluorescence ratio of 0.987.
In the case of AAGATAGGCA, the switch fluorescence ratio is reported as 0.997.
In the case of AAGATCATAT, the switch fluorescence ratio is reported as 1.08.
AAGATCCGTT showed a switch fluorescence ratio of 0.923.
For AAGATCTCCT, the switch fluorescence ratio was 1.02.
With AAGATCTGAG the switch fluorescence ratio was 1.
Work on AAGATGATC yielded a switch fluorescence ratio of 1.03.
For AAGATGTGGG, the switch fluorescence ratio was 1.04.
AAGATGTGTT gave a switch fluorescence ratio of 1.02.
In the case of AAGATTCATC, the switch fluorescence ratio is reported as 1.02.
AAGATTGTAT was tested, and the switch fluorescence ratio was 0.964.
Work on AAGATTGTGA yielded a switch fluorescence ratio of 0.965.
For AAGCAGAGAT, the switch fluorescence ratio was 0.978.
With AAGCAGAGCT the switch fluorescence ratio was 1.01.
AAGCAGTTTT gave a switch fluorescence ratio of 0.98.
In the case of AAGCATATAT, the switch fluorescence ratio is reported as 1.36.
AAGCCAAGGG gave a switch fluorescence ratio of 0.993.
For AAGCCGCCGG, the switch fluorescence ratio was 1.01.
Work on AAGCCGGCTG yielded a switch fluorescence ratio of 1.01.
Work on AAGCCGGGCC yielded a switch fluorescence ratio of 0.986.
Sequence AAGCGAATCC has a switch fluorescence ratio of 1.15.
Sequence AAGCGCATCT has a switch fluorescence ratio of 1.01.
AAGCGGAGGT gave a switch fluorescence ratio of 1.
AAGCGGCGTG was tested, and the switch fluorescence ratio was 0.985.
AAGCGTAGCC gave a switch fluorescence ratio of 1.05.
For AAGCGTTGAT, the switch fluorescence ratio was 1.
Work on AAGCTATTAC yielded a switch fluorescence ratio of 3.82.
For AAGCTCGTGT, the switch fluorescence ratio was 1.01.
AAGCTGACCG gave a switch fluorescence ratio of 1.05.
AAGCTTATTA showed a switch fluorescence ratio of 1.
With AAGCTTGGGG the switch fluorescence ratio was 1.04.
Sequence AAGCTTGTCG has a switch fluorescence ratio of 0.943.
AAGGAAACAG was tested, and the switch fluorescence ratio was 1.01.
Sequence AAGGAAGGAC has a switch fluorescence ratio of 0.975.
AAGGACGAAA gave a switch fluorescence ratio of 1.07.
For AAGGAGAGAT, the switch fluorescence ratio was 1.05.
For AAGGAGCACT, the switch fluorescence ratio was 1.03.
In the case of AAGGATGGTT, the switch fluorescence ratio is reported as 1.03.
Sequence AAGGCACTAG has a switch fluorescence ratio of 0.995.
AAGGCCAAGT was tested, and the switch fluorescence ratio was 1.04.
AAGGCCACGA was tested, and the switch fluorescence ratio was 1.01.
Sequence AAGGCCGAAG has a switch fluorescence ratio of 1.02.
AAGGCCGGGG gave a switch fluorescence ratio of 0.97.
For AAGGCGACTT, the switch fluorescence ratio was 1.07.
With AAGGCGCTCA the switch fluorescence ratio was 0.998.
Work on AAGGCGGATG yielded a switch fluorescence ratio of 0.987.
For AAGGCGTGCC, the switch fluorescence ratio was 0.991.
With AAGGCTCATC the switch fluorescence ratio was 1.01.
In the case of AAGGCTCTGG, the switch fluorescence ratio is reported as 0.985.
With AAGGCTTAGG the switch fluorescence ratio was 0.943.
Work on AAGGGAACCA yielded a switch fluorescence ratio of 1.01.
With AAGGGATCTT the switch fluorescence ratio was 0.999.
AAGGGCAAAA gave a switch fluorescence ratio of 1.01.
For AAGGGCGACT, the switch fluorescence ratio was 0.99.
Work on AAGGGGCTGT yielded a switch fluorescence ratio of 0.989.
With AAGGGGGTGC the switch fluorescence ratio was 1.
With AAGGGTACAG the switch fluorescence ratio was 1.06.
Sequence AAGGGTTTG has a switch fluorescence ratio of 0.984.
With AAGGTAAAGG the switch fluorescence ratio was 0.99.
With AAGGTACTCG the switch fluorescence ratio was 1.
Sequence AAGGTAGCCC has a switch fluorescence ratio of 1.04.
In the case of AAGGTAGGAG, the switch fluorescence ratio is reported as 1.01.
AAGGTCAGCC was tested, and the switch fluorescence ratio was 0.979.
Work on AAGGTCCGGT yielded a switch fluorescence ratio of 0.974.
With AAGGTCTAGG the switch fluorescence ratio was 1.
Work on AAGGTGGATT yielded a switch fluorescence ratio of 0.979.
In the case of AAGGTTCTAT, the switch fluorescence ratio is reported as 1.03.
AAGGTTTATG gave a switch fluorescence ratio of 0.979.
With AAGTAAAAAG the switch fluorescence ratio was 0.969.
AAGTAAACCT was tested, and the switch fluorescence ratio was 2.56.
AAGTAGCCCA showed a switch fluorescence ratio of 1.02.
For AAGTAGGGTC, the switch fluorescence ratio was 1.04.
AAGTAGGTTG showed a switch fluorescence ratio of 0.953.
For AAGTATAAAG, the switch fluorescence ratio was 0.953.
AAGTATAGT gave a switch fluorescence ratio of 1.01.
AAGTATATCG gave a switch fluorescence ratio of 0.951.
AAGTATGCAA was tested, and the switch fluorescence ratio was 1.01.
With AAGTCACAAT the switch fluorescence ratio was 1.06.
Sequence AAGTCCATGA has a switch fluorescence ratio of 0.953.
AAGTCCGGTC gave a switch fluorescence ratio of 1.05.
Sequence AAGTCCGTAT has a switch fluorescence ratio of 1.
AAGTCCTCGA was tested, and the switch fluorescence ratio was 0.993.
In the case of AAGTCGAGGG, the switch fluorescence ratio is reported as 1.03.
With AAGTCGGGGA the switch fluorescence ratio was 1.
With AAGTCTGACT the switch fluorescence ratio was 1.01.
Sequence AAGTCTGTA has a switch fluorescence ratio of 0.956.
In the case of AAGTGAAAAC, the switch fluorescence ratio is reported as 0.94.
With AAGTGACGGT the switch fluorescence ratio was 1.05.
With AAGTGAGGGA the switch fluorescence ratio was 0.978.
For AAGTGCTATG, the switch fluorescence ratio was 1.06.
AAGTGCTTTA gave a switch fluorescence ratio of 1.02.
Sequence AAGTGTAGTT has a switch fluorescence ratio of 1.01.
For AAGTGTTTC, the switch fluorescence ratio was 1.04.
In the case of AAGTTATCA, the switch fluorescence ratio is reported as 0.992.
With AAGTTATCG the switch fluorescence ratio was 0.954.
With AAGTTATTGG the switch fluorescence ratio was 0.971.
AAGTTGCAGG was tested, and the switch fluorescence ratio was 1.03.
Work on AAGTTGGTGC yielded a switch fluorescence ratio of 0.997.
In the case of AAGTTTAGA, the switch fluorescence ratio is reported as 1.02.
With AAGTTTGGCT the switch fluorescence ratio was 1.
In the case of AAGTTTGTA, the switch fluorescence ratio is reported as 0.956.
AAGTTTGTG showed a switch fluorescence ratio of 1.
Sequence AATAAATTGG has a switch fluorescence ratio of 0.959.
With AATAACATAT the switch fluorescence ratio was 1.24.
Sequence AATAAGGCGA has a switch fluorescence ratio of 0.981.
For AATAATCTAG, the switch fluorescence ratio was 0.998.
AATACATATA was tested, and the switch fluorescence ratio was 1.07.
With AATACTCACA the switch fluorescence ratio was 1.44.
In the case of AATACTCGGT, the switch fluorescence ratio is reported as 1.05.
AATACTGATA showed a switch fluorescence ratio of 1.02.
AATAGAAACG was tested, and the switch fluorescence ratio was 1.02.
With AATAGAAGAA the switch fluorescence ratio was 0.988.
In the case of AATAGACGGT, the switch fluorescence ratio is reported as 1.03.
Work on AATAGCGAGC yielded a switch fluorescence ratio of 0.974.
For AATAGCTATA, the switch fluorescence ratio was 1.
AATAGGATGT showed a switch fluorescence ratio of 0.959.
In the case of AATAGGTGAA, the switch fluorescence ratio is reported as 1.02.
Work on AATAGTAATA yielded a switch fluorescence ratio of 1.01.
For AATAGTGTAT, the switch fluorescence ratio was 0.952.
AATAGTTATA was tested, and the switch fluorescence ratio was 1.02.
AATAGTTTTG was tested, and the switch fluorescence ratio was 0.99.
For AATATATCAG, the switch fluorescence ratio was 0.967.
AATATATCCA gave a switch fluorescence ratio of 1.01.
Work on AATATCAACA yielded a switch fluorescence ratio of 1.04.
For AATATCCACG, the switch fluorescence ratio was 1.03.
Work on AATATGACAT yielded a switch fluorescence ratio of 1.
Work on AATATGCTTG yielded a switch fluorescence ratio of 0.994.
AATATTCTC showed a switch fluorescence ratio of 0.998.
In the case of AATATTGTAA, the switch fluorescence ratio is reported as 0.99.
Sequence AATATTGTCA has a switch fluorescence ratio of 1.02.
Work on AATATTTGAT yielded a switch fluorescence ratio of 0.962.
In the case of AATCAACTAT, the switch fluorescence ratio is reported as 0.983.
AATCAAGAAT was tested, and the switch fluorescence ratio was 1.04.
AATCACAGAG showed a switch fluorescence ratio of 0.939.
AATCAGGAGC showed a switch fluorescence ratio of 0.967.
AATCAGGGAT was tested, and the switch fluorescence ratio was 1.03.
With AATCAGGGGA the switch fluorescence ratio was 1.41.
AATCATGACA gave a switch fluorescence ratio of 1.02.
In the case of AATCCCAAAG, the switch fluorescence ratio is reported as 1.04.
Sequence AATCCCATAT has a switch fluorescence ratio of 0.996.
For AATCCCCCGG, the switch fluorescence ratio was 4.69.
For AATCCCGGAT, the switch fluorescence ratio was 1.08.
AATCCGGTAC gave a switch fluorescence ratio of 4.64.
